Experimental data as given in PubChem BioAssay (Tox21).
The shares of active, inactive and inconclusive entries below differ from those in the screen. A call without a number means that no potency is given here. For some assays here: Where the call is inconclusive, the potency comes from a doubtful curve fit. The source made the active and inactive calls. Unless noted, the call rests on the fitted dose curve; in most records, active means well fitted curve in the direction sought with a large enough effect in the repeat runs; inconclusive means weak or mixed curves; inactive means no such curve, though single readings can be large; an effect the other way counts as inactive or inconclusive.

Assays:
[1] = qHTS assay to identify aromatase inhibitors - cell viability counter screen (AID 743084); details: MCF-7 aro ERE viability, CellTiter-Fluor, 24 h; activity change, negative = cytotoxicity: at 70.3 µM (top of the series) unless noted;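 further: cells stimulated with testosterone during compound exposure; nearly all actives have a fitted effect of over 55% in size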; further: potency means the concentration at half of the fitted maximal effect
[2] = qHTS assay to identify small molecule agonists of the farnesoid-X-receptor (FXR) signaling pathway - cell viability counter screen (AID 743218); details: FXR-bla HEK293T viability, CellTiter-Glo luminescence, 16 h; viability change, negative = cytotoxic: at 62.6 µM (top of the series) unless noted; further: nearly all actives have a fitted effect of over 45% in size; further: potency means the concentration at half of the fitted maximal effect
Method in brief: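 Readout: CellTiter-Glo luminescence, 30 min RT, multiplexed after the FXR-bla FRET reading. HEK 293T FXR-UAS-bla cells received compound 5 h post-plating and were incubated 16 h at 37 C.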

[3] = qHTS assay to identify small molecule antagonists of the vitamin D receptor (VDR) signaling pathway - cell viability counter screen (AID 743225); details: VDR-bla HEK293T viability, CellTiter-Glo luminescence, 16 h; viability change, negative = cytotoxic: at 61 µM (top of the series) unless noted; further: potency means the concentration at half of the fitted maximal effect; nearly all actives have a fitted effect of over 50% in size
Method in brief: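 Cytotoxicity toward the VDR-bla HEK 293T line was scored by ATP-based CellTiter-Glo luminescence, read in the wells already used for the beta-lactamase readout after 16 h compound treatment under 3 nM 1-alpha,25-dihydroxyvitamin D3 stimulation.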

[4] = qHTS assay for small molecule activators of the heat shock response signaling pathway (AID 743210; active means well fitted activation curve with a large enough effect in the signal ratio in the repeat runs, with a control signal flat, not every such curve was filed as active; inconclusive means weak or mixed curves; the % refers to the signal ratio;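 further: HeLa cells with beta-lactamase reporter driven by heat shock elements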); details: HeLa HSE-bla reporter, beta-lactamase ratio, 5 h; activation: at 62.6 µM (top of the series) unless noted
Method in brief: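 Activation of heat shock element-controlled beta-lactamase expression is measured in HeLa cells by LiveBLAzer FRET fluorescence, with compound exposure lasting 5 h at 37 C and substrate loading 2.5 h at room temperature.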

[5] = target: Peroxisome proliferator-activated receptor delta (Homo sapiens) (UniProt Q03181); experiment: qHTS assay to identify small molecule antagonists of the peroxisome proliferator-activated receptor delta (PPARd) signaling pathway (AID 743215; active means well fitted inhibition curve with a large enough effect in the signal ratio in the repeat runs, not every such curve was filed as active; inconclusive means weak or mixed curves, or effect the other way; inactive means no such curve, though single readings can be large or run the other way; the % refers to the signal ratio;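 further: cells stimulated with agonist L165041 at 300 nM final during compound exposure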); details: HEK293H PPARd-UAS-bla, beta-lactamase FRET ratio, antagonist, 17 h; ratio activity, negative = inhibition: at 62 µM (top of the series) unless noted
Method in brief: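 Fluorescence from cleaved LiveBLAzer B/G FRET substrate (2 h, room temperature) reports PPARd-driven beta-lactamase in HEK293H UAS-bla cells. Cells had been treated 17 h at 37 C with compound plus 300 nM final L165041.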

[6] = target: Thyrotropin receptor (Homo sapiens) (UniProt P16473); experiment: qHTS assay to identify small molecule agonists of the thyroid stimulating hormone receptor (TSHR) signaling pathway (AID 1224843; calls by dose curve; further: nearly all actives have a fitted effect of over 45% in size); details: TSHR-HEK293 cells, cAMP HTRF, agonist mode, 30 min; activation: at 92.4 µM (top of the series) unless noted
Method in brief: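 Compounds are titrated over 15 concentrations, in triplicate, onto TSHR-HEK293 cells seeded at 800/well. Plates sit 30 min at room temperature before cAMP-d2 and anti-cAMP cryptate are added; signal is read after a further hour.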

[7] = target: Estrogen receptor (Homo sapiens) (UniProt P03372); experiment: qHTS assay to identify small molecule antagonists of the estrogen receptor alpha (ER-alpha) signaling pathway (AID 743069; active means well fitted curve in the direction sought with a large enough effect in the signal ratio in the repeat runs, not every such curve was filed as active; inconclusive means weak or mixed curves, or effect the other way; inactive means no such curve, though single readings can be large or run the other way; the % refers to the signal ratio); details: HEK293 ER-alpha-UAS-bla, beta-lactamase ratio, antagonist mode; activity, negative = inhibition: at 69.4 µM (top of the series) unless noted
Method in brief: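 Screening used a UAS-driven beta-lactamase reporter integrated into HEK293 cells expressing ER-alpha, stimulated with 17beta-estradiol alongside test compounds over 18 hr at 37C; signal came from LiveBLAzer B/G FRET fluorescence.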

[8] = qHTS assay to identify small molecule antagonists of the estrogen receptor alpha (ER-alpha) signaling pathway using the BG1 cell line (AID 743080; calls by dose curve;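 further: BG1 cells stimulated with 17beta-estradiol alongside compound; nearly all actives have a fitted effect of over 25% in size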; further: potency means the concentration at half of the fitted maximal effect); details: BG1Luc4E2 ERE-luciferase antagonist mode, luminescence; activity change, negative = inhibition: at 70.3 µM (top of the series) unless noted
Method in brief: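 Quantitative HTS on the Tox21 10K library: BG1 cells with endogenous ER-alpha and ERE-luciferase reporter, 17beta-estradiol stimulation, 21.5 h compound exposure, luminescence endpoint with parallel fluorescence cytotoxicity counter-read.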

[9] = target: Aryl hydrocarbon receptor (Homo sapiens) (UniProt P35869); experiment: qHTS assay to identify small molecule that activate the aryl hydrocarbon receptor (AhR) signaling pathway (AID 743085); further: potency means the concentration at half of the fitted maximal effect; nearly all actives have a fitted effect of over 15% in size
Method in brief: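 Reporter assay in engineered HepG2 line HG2L7.5c1, whose plasmid carries twenty dioxin responsive elements upstream of firefly luciferase. Treatment lasted 24 h at 37C; ONE-Glo luminescence gauged induction.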

[10] = qHTS RealTime-Glo MT Cell Viability Assay in HEK293 cells - 24 hour (AID 1224886); further: top concentration of the series differs between compounds; nearly all actives have a fitted effect of over 50% in size
Method in brief: (§1)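 Reads taken at 0, 8, 16, 24, 32 and 40 h from the same wells. HEK293 cells (600/well) carried RealTime-Glo reagents from seeding, with compound added after a 5 h settle at 37 C.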

[11] = target: Estrogen receptor beta (Homo sapiens) (UniProt Q92731); experiment: qHTS assay to identify small molecule agonists of the estrogen receptor beta (ER-beta) signaling pathway (AID 1259377; active means well fitted activation curve with a large enough effect in the signal ratio in the repeat runs, not every such curve was filed as active; inconclusive means weak or mixed curves, or effect the other way; the % refers to the signal ratio; further: potency means the concentration at half of the fitted maximal effect); details: ER-beta-UAS-bla HEK293T, beta-lactamase FRET ratio, 16 h; activation: at 92.4 µM (top of the series) unless noted
Method in brief: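 Measured by fluorescence intensity from a B/G FRET beta-lactamase substrate (2 h, room temperature) in ER-beta-UAS-bla HEK293T cells treated with DMSO-dissolved compounds for 16 hr at 37C and 5% CO2.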

[12] = qHTS assay to identify small molecule agonists of the estrogen receptor beta (ER-beta) signaling pathway - cell viability counter screen (AID 1259380); further: nearly all actives have a fitted effect of over 30% in size
Method in brief: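 In this qHTS counter screen, HEK293T cells carrying an ER-beta/UAS beta-lactamase reporter, grown in 2% charcoal-stripped FBS, received compound for 16 hr; ATP-based CellTiter-Glo luminescence was then read after 30 min at room temperature.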

[13] = target: Progesterone receptor (Homo sapiens) (UniProt P06401); experiment: qHTS assay to identify small molecule agonists of the progesterone receptor (PR) signaling pathway (AID 1346784; calls by dose curve; further: nearly all actives have a fitted effect of over 30% in size; further: potency means the concentration at half of the fitted maximal effect); details: PR-UAS-bla HEK293T, beta-lactamase FRET ratio, 16 h; activation: at 92.4 µM (top of the series) unless noted
Method in brief: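 The screen uses PR-UAS-bla HEK 293T cells in charcoal-stripped serum (2%). Compounds are applied for 16 hr at 37C after a 6 hr pre-incubation, and reporter activity is detected with a FRET beta-lactamase substrate after 2 hr at room temperature.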

[14] = qHTS RealTime-Glo MT Cell Viability Assay in HEK293 cells - 32 hour (AID 1224868); further: top concentration of the series differs between compounds; nearly all actives have a fitted effect of over 50% in size
Method in brief: as §1

[15] = target: Nuclear receptor subfamily 1 group I member 2 (Homo sapiens) (UniProt O75469); experiment: Human pregnane X receptor (PXR) small molecule agonists, qHTS assay (AID 1346982); further: potency means the concentration at half of the fitted maximal effect; nearly all actives have a fitted effect of over 35% in size
Method in brief: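 After plating in 5% charcoal-stripped FBS and a 5 hr rest, PXR-Luc HepG2 cells received compounds in DMSO. Following 24 hr at 37 C, ONE-Glo was added and light output read.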

[16] = Human pregnane X receptor (PXR) small molecule agonists, qHTS cell viability counter screen (AID 1346977); further: nearly all actives have a fitted effect of over 50% in size
Method in brief: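 HepG2 cells stably carrying the PXR-Luc reporter are cultured with 5% charcoal-stripped FBS and treated with compounds for 24hr. CellTiter-Fluor is added at 23hr and fluorescence is read after 1hr.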
Tags describe the fitted curve by direction and shape or compound fluorescence and quenching.

UniProt Q92731, sequence (Q92731 whole entry, looked up): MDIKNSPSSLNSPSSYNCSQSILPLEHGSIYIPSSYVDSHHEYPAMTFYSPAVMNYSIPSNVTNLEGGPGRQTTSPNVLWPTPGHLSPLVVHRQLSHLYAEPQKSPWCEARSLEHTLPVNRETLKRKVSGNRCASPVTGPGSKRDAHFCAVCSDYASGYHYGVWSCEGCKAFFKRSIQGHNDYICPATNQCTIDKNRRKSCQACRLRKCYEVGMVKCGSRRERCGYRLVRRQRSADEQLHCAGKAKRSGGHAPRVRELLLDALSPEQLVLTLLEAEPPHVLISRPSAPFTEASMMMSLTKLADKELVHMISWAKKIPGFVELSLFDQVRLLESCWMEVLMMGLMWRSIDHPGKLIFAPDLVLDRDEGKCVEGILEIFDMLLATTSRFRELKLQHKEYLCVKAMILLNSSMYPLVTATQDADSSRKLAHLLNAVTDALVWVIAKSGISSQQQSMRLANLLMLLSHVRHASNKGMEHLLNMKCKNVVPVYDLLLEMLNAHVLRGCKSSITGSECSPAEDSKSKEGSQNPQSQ
UniProt Q03181, sequence (Q03181 whole entry, looked up): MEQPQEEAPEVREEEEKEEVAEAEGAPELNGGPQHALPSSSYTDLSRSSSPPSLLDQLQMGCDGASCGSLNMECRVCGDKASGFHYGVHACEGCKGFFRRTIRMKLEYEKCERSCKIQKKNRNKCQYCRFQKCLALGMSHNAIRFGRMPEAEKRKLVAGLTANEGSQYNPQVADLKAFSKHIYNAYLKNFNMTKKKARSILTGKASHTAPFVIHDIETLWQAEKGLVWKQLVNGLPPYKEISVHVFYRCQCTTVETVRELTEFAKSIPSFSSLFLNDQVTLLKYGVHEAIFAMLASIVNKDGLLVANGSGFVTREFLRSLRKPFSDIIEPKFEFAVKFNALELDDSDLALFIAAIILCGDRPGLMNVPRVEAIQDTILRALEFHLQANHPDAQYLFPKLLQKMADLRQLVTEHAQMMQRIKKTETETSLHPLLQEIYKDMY
UniProt P06401, sequence (P06401 whole entry, looked up): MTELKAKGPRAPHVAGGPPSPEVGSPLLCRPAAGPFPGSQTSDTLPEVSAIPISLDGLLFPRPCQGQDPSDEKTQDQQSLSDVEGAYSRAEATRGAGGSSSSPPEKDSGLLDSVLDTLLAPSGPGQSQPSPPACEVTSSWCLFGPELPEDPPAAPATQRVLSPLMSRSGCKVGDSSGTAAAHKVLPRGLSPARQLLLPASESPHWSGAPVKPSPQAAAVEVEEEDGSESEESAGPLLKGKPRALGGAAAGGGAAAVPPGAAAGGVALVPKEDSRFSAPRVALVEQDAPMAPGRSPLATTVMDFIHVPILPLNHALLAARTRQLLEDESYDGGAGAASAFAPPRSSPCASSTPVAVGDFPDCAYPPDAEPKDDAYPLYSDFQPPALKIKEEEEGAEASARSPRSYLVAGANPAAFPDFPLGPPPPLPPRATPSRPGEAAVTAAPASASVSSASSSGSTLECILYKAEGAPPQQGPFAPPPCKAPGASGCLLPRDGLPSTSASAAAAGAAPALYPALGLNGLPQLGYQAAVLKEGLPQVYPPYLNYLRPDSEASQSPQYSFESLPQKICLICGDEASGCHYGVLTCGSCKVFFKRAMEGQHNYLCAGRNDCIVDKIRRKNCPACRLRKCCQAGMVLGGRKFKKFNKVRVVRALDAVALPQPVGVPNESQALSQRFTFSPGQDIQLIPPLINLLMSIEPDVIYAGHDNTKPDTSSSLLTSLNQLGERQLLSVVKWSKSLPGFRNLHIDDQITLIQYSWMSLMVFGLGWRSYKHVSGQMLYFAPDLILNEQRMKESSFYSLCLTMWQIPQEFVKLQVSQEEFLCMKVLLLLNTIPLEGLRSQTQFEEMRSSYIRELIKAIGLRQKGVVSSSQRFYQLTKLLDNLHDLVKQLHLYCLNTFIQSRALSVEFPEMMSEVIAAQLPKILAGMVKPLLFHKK
UniProt O75469, sequence (O75469 whole entry, looked up): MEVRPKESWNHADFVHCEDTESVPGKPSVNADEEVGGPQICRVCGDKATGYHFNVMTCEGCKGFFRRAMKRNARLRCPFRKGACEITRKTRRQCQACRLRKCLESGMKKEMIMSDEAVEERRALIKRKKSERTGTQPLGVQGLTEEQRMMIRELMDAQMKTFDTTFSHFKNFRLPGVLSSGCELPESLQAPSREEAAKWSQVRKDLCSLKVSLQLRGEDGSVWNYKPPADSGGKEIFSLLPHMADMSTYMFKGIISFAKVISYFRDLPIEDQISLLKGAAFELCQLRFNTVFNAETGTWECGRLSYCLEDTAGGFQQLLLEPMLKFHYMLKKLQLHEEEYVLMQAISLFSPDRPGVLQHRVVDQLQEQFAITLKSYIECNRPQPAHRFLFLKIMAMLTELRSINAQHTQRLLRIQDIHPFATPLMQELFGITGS
UniProt P35869, sequence (P35869 whole entry, looked up): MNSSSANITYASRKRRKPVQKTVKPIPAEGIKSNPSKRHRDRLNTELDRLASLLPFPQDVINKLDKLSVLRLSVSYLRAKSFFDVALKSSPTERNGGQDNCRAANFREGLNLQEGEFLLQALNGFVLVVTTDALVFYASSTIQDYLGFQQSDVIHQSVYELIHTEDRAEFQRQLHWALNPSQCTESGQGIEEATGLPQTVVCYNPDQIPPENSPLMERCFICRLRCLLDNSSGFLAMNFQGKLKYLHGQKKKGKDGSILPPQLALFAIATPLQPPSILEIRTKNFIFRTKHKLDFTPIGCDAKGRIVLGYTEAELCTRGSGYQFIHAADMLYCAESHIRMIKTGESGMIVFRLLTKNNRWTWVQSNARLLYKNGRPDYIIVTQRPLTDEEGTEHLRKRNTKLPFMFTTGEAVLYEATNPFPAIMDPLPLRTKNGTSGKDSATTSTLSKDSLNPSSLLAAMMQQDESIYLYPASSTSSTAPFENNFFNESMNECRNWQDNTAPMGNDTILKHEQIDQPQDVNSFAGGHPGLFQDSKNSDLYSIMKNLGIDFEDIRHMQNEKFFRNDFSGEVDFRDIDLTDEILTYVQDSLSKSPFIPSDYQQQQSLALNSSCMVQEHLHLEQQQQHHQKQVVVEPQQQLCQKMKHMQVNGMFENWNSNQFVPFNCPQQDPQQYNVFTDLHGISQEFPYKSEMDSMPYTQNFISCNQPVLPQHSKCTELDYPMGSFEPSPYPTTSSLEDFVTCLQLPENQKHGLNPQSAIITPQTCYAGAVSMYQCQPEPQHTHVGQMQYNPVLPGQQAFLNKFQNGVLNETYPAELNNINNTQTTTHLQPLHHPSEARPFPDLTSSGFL
UniProt P16473, sequence (P16473 whole entry, looked up): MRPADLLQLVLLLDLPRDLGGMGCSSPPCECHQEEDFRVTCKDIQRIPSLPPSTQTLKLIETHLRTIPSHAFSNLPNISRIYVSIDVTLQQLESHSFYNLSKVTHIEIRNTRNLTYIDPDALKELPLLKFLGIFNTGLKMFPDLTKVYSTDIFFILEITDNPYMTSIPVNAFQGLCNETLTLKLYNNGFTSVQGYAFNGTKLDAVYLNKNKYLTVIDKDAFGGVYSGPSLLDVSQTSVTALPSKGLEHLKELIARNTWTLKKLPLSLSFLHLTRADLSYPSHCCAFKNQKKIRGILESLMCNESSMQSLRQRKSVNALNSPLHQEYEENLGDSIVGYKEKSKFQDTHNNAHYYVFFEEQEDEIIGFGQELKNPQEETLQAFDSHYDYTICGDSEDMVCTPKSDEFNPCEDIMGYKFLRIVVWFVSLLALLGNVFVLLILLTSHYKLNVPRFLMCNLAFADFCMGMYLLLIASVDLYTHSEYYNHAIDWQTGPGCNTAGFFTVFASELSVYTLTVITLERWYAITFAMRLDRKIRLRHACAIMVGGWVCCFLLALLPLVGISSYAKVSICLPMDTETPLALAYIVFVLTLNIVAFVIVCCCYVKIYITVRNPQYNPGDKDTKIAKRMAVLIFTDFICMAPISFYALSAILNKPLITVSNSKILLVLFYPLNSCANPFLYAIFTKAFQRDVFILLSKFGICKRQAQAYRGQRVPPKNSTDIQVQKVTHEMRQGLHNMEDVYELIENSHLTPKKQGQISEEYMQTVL
UniProt P03372, sequence (P03372 whole entry, looked up): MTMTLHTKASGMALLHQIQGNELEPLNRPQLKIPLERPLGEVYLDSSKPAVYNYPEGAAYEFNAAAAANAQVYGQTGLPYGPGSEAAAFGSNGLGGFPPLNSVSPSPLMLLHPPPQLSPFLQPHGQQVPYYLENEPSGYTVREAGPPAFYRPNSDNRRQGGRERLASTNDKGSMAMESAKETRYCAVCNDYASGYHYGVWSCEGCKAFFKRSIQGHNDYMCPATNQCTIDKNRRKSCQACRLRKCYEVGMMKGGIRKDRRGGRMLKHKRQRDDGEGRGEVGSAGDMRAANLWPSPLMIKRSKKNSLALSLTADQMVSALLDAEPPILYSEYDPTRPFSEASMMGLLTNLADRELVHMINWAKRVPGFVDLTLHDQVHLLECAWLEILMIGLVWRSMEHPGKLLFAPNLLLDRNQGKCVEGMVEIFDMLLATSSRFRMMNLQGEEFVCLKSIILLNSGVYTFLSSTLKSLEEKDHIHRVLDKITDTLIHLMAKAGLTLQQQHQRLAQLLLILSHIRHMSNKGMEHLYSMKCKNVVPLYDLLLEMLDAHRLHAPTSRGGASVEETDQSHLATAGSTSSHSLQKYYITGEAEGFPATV

O=C(O)c1cc(Cl)cc([N+](=O)[O-])c1Cl
Potency [1]: inconclusive: 86.3 µM [rising, single point]
Potency [2]: inactive
Potency [3]: inconclusive: 5.49 µM [cytotoxic, single point]

CCCCCCC1CCC(=O)O1 (stereo unspecified)
Potency [1]: inactive
Potency [4]: inactive
Potency [2]: inconclusive: 7.94 µM [rising, full curve, poor fit]
Potency [3]: inconclusive: 0.199 µM [cytotoxic, full curve, poor fit]

CC(C)CC(O)Cc1ccccc1 (stereo unspecified)
Potency [1]: inconclusive: 7.7 µM [rising, full curve, poor fit]
Potency [5]: inactive
Potency [3]: inconclusive: 1.55 µM [cytotoxic, full curve, poor fit]

CC1OC1C1CCC2(C)OC2C1 (stereo unspecified)
Potency [6]: inactive

CC(C)(C)OC(=O)c1cccc(N)c1
Potency [7]: inactive
Potency [8]: inconclusive: 55.9 µM
Potency [9]: inconclusive: 62.8 µM [activator, single point]
Potency [10]: inactive
Potency [11]: inactive
Potency [12]: inactive
activation [13]: inconclusive: 34.3%

CCCCN1C=CN(C)C1
Potency [8]: inactive
activation [6]: inactive: 2.47% [at 19 µM]
activity change, negative = cytotoxic [14]: inactive: 8.51% [at 15.8 µM]
activity change, negative = cytotoxicity [12]: inactive: 2.46% [at 19 µM]
Potency [13]: active: 2.46 µM

CC(C)(C)OC(=O)c1ccc(O)cc1
Potency [9]: inconclusive: 27.3 µM [activator]
Potency [11]: inconclusive: 15.4 µM [activator, full curve]
Potency [15]: active: 27.3 µM

NCCCC(N)(C(=O)O)C(F)F (stereo unspecified)
Potency [2]: inactive

CC(C)NC(=O)NC(C)C
Potency [4]: inactive
viability change, negative = cytotoxic [2]: inconclusive: 12.1%
Potency [10]: inactive
Potency [12]: inactive

N=C(N)c1ccc2cc(OC(=O)c3ccc(N=C(N)N)cc3)ccc2c1
Potency [2]: inactive

Nc1cc(C(=O)O)c(O)c(S(=O)(=O)O)c1
Potency [1]: inconclusive: 60.3 µM [rising, partial curve]
Potency [11]: inactive
Potency [15]: inconclusive: 26.9 µM [activator, partial curve, poor fit]

Cc1ccc(C)c(S(=O)(=O)O)c1
Potency [2]: inconclusive: 0.0013 µM
Potency [16]: inactive

COc1ccc(OC)c(Cl)c1
Potency [14]: inactive

COCCc1ccccn1
Potency [5]: inactive
Potency [10]: inactive

NC12CC3CC(CC(C3)C1)C2
Potency [10]: inactive
